Drawing on a collection of fitness landscapes (doi:10.1126/science.1257360), this text covers enrichment ratio for 153 variants.

The other results are listed elsewhere or left out.

B1: PhoQ; a variant is named by its letters at X, in order, P23837 (parent)
chain: MKKLLRLFFPLSLRVRFLLATAAVVLVLSLAYGMVALIGYSVSFDKTTFRLLRGESNLFYTLAKWENNKLHVELPENIDKQSPTMTLIYDENGQLLWAQRDVPWLMKMIQPDWLKSNGFHEIEADVNDTSLLLSGDHSIQQQLQEVREDDDDAEMTHSVAVNVYPATSRMPKLTIVVVDTIPVELKSSYMVWSWFIYVLSANLLLVIPLLWVAAWWSLRPIEALAKEVRELEEHNRELLNPATTRELTSLVRNLNRLLKSERERYDKYRTTLTDLTHSLKTPLXXLQXXLRSLRSEKMSVSDAEPVMLEQISRISQQIGYYLHRASMRGGTLLSRELHPVAPLLDNLTSALNKVYQRKGVNISLDISPEISFVGEQNDFVEVMGNVLDNACKYCLEFVEISARQTDEHLYIVVEDDGPGIPLSKREVIFDRGQRVDTLRPGQGVGLAVAREITEQYEGKIVAGESMLGGARMEVIFGRQHSAPKDE

The variants in the experiment derive from B1. The experiment can be described thus: enrichment ratio after two sorts for PhoP signalling (ratio (wild type AVST 3.29)); higher = more functional. Particulars: with PhoP (E. coli).
Regarding SNTY, the enrichment ratio came to 6.94. The figure for DADL is at most 0.25. In the case of IHIK, the enrichment ratio is at most 0.25. For the variant ILWL, the enrichment ratio was at most 0.25. On to IVGR, for which the enrichment ratio is at most 0.25.

In the case of YMKM, the enrichment ratio was at most 0.25. Regarding YPEG, the enrichment ratio is at most 0.25.

Regarding YGNK, the enrichment ratio was at most 0.25. FKHS: the enrichment ratio was at most 0.25. As for ESYT, the enrichment ratio was at most 0.25. With NYQM, the enrichment ratio was at most 0.25. Turning to PCCW, the enrichment ratio is at most 0.25. Consider EARI, for which the enrichment ratio was at most 0.25. Consider TCAR, for which the enrichment ratio turned out to be 5.3.

In the case of VYHL, the enrichment ratio is at most 0.25. For the variant WYGQ, the enrichment ratio is at most 0.25. In the case of IVAV, the enrichment ratio was at most 0.25. As for PFSK, the enrichment ratio is at most 0.25. IIWC: the enrichment ratio is at most 0.25.

Turning to AEPA, the enrichment ratio was at most 0.25. The figure for HILS is at most 0.25. FCWD: the enrichment ratio was at most 0.25. The figure for HGFS is at most 0.25; for SECV it is 24.5. To RDPF belongs at most 0.25; to KTRQ, at most 0.25. As to TMNW, the enrichment ratio is at most 0.25. Consider MDFW, for which the enrichment ratio was at most 0.25. Turning to SYSW, the enrichment ratio is at most 0.25. Regarding EGIA, the enrichment ratio is at most 0.25. The figure for RQSE is at most 0.25; for NRSN it is at most 0.25. In the case of WYRA, the enrichment ratio is at most 0.25. In the case of IHHG, the enrichment ratio is at most 0.25.

In the case of NSCF, the enrichment ratio was at most 0.25. With QCWP, the enrichment ratio is at most 0.25. With NECL, the enrichment ratio is at most 0.25. On to WCII, for which the enrichment ratio was at most 0.25. In the case of EFQC, the enrichment ratio is at most 0.25. For the variant SGWQ, the enrichment ratio is at most 0.25.

For PPQL, the enrichment ratio is at most 0.25. To KCRI belongs at most 0.25; to KSKT, at most 0.25; to ICSW, at most 0.25. With RECV, the enrichment ratio was at most 0.25. For IMSQ, the enrichment ratio is at most 0.25. As to HQGD, the enrichment ratio is at most 0.25.

With RKYQ, the enrichment ratio was at most 0.25. Consider VFRY, for which the enrichment ratio was at most 0.25.

For the variant KGQE, the enrichment ratio was at most 0.25. On to LMIH, for which the enrichment ratio is at most 0.25. TQQN: the enrichment ratio is 14.8.

Consider YNNW, for which the enrichment ratio was at most 0.25.

Consider ISVY, for which the enrichment ratio is at most 0.25. Take ATDV: the enrichment ratio is at most 0.25.

Take SPDM: the enrichment ratio was at most 0.25. With GNQH, the enrichment ratio was at most 0.25. With ALHI, the enrichment ratio was at most 0.25. Consider LMIS, for which the enrichment ratio was at most 0.25. Regarding QLVN, the enrichment ratio is at most 0.25. Turning to SEPK, the enrichment ratio was at most 0.25. In the case of MCML, the enrichment ratio was 17.5. In the case of NYPT, the enrichment ratio was at most 0.25. With SEMR, the enrichment ratio was determined as 5.37.

With DGMP, the enrichment ratio is at most 0.25. For NSYY, the enrichment ratio is at most 0.25. With PEVG, the enrichment ratio is at most 0.25. For the variant PEVC, the enrichment ratio is at most 0.25. Regarding CCYF, the enrichment ratio was at most 0.25.

For the variant HSNV, the enrichment ratio is at most 0.25. As for WGCA, the enrichment ratio is at most 0.25. As for ALCV, the enrichment ratio was found to be 6.63. In the case of FGQF, the enrichment ratio is at most 0.25.

Regarding HDHN, the enrichment ratio was at most 0.25. Turning to KSFL, the enrichment ratio is at most 0.25.

Take HQWP: the enrichment ratio was at most 0.25.

For TELC, the enrichment ratio was 11.4. With QDCW, the enrichment ratio is at most 0.25.

As to PNCN, the enrichment ratio is at most 0.25. For EYIM, the enrichment ratio was at most 0.25. As for WPCG, the enrichment ratio was at most 0.25. Consider GKKS, for which the enrichment ratio was at most 0.25. The figure for WNAV is at most 0.25; for LFCP it is at most 0.25. Take LACC: the enrichment ratio is at most 0.25. With ATNC, the enrichment ratio is at most 0.25. DNIN: the enrichment ratio is at most 0.25. To QNNR belongs at most 0.25; to SEPD, at most 0.25.

SMEA: the enrichment ratio is at most 0.25.

Turning to PTWY, the enrichment ratio was at most 0.25. On to QMRV, for which the enrichment ratio was at most 0.25. The figure for NQKD is at most 0.25; for RTQS it is 0.421. The figure for SWTY is at most 0.25.

As to PWGI, the enrichment ratio was at most 0.25. With YPAM, the enrichment ratio is at most 0.25. With DEPM, the enrichment ratio is at most 0.25.

Consider HDMY, for which the enrichment ratio was at most 0.25. To KCYM belongs at most 0.25.

In the case of SQAY, the enrichment ratio was determined as 11.2.

VTCR: the enrichment ratio is at most 0.25. Consider LTCG, for which the enrichment ratio is at most 0.25. The figure for IKRL is at most 0.25; for QMTG it is at most 0.25; for ITHG it is at most 0.25.

SFRT: the enrichment ratio was at most 0.25. As for DDAY, the enrichment ratio was at most 0.25. For the variant IDVT, the enrichment ratio is at most 0.25.

Regarding LRLE, the enrichment ratio was at most 0.25.

Regarding GTAP, the enrichment ratio is at most 0.25. Consider FVAW, for which the enrichment ratio was at most 0.25. With WPWV, the enrichment ratio was at most 0.25. As for GCWL, the enrichment ratio is at most 0.25.

With DALY, the enrichment ratio is at most 0.25.

With WKEA, the enrichment ratio was at most 0.25. As to RVAV, the enrichment ratio is at most 0.25. On to YRAF, for which the enrichment ratio was at most 0.25. To QNLN belongs at most 0.25. Consider KVSK, for which the enrichment ratio is at most 0.25. The figure for PHVY is at most 0.25; for KESP it is at most 0.25; for MFLC it is at most 0.25.

VSNS: the enrichment ratio was at most 0.25. On to PNLV, for which the enrichment ratio is at most 0.25. Turning to QPNL, the enrichment ratio was at most 0.25.

Regarding TNQM, the enrichment ratio came to 14.3. With YPWC, the enrichment ratio is at most 0.25. The figure for PVGP is at most 0.25; for GKWT it is at most 0.25; for EIAY it is at most 0.25. Take YNHG: the enrichment ratio is at most 0.25.

LKCM: the enrichment ratio was at most 0.25. The figure for KMKP is at most 0.25. Take QCCQ: the enrichment ratio is at most 0.25. YPGI: the enrichment ratio is at most 0.25. Turning to CPSD, the enrichment ratio was at most 0.25. With FSFK, the enrichment ratio came to 0.842. Regarding IYIL, the enrichment ratio is at most 0.25. For the variant DVYY, the enrichment ratio was at most 0.25. In the case of PHIN, the enrichment ratio is at most 0.25.

For GFQV, the enrichment ratio was at most 0.25. Turning to FRDR, the enrichment ratio is at most 0.25. Consider NYND, for which the enrichment ratio is at most 0.25. SQCN: the enrichment ratio was determined as 10.1. To WHPA belongs at most 0.25; to QYVG, at most 0.25.

Turning to SILP, the enrichment ratio was at most 0.25.

For AWIL, the enrichment ratio is at most 0.25. With HCMG, the enrichment ratio is at most 0.25. The figure for PENC is at most 0.25; for FPGA it is at most 0.25.

Consider LHCQ, for which the enrichment ratio is at most 0.25.
